Results from the supplement of paper PMC12217912.
Some of the results follow. The full chains were built here from the parent and the listed change. Values near 0.05 are background.

B1: TEV protease; numbered along this chain (parent)
chain: MGESLFKGPRDYNPISSSICHLTNESDGHTTSLYGIGFGPFIITNKHLFRRNNGTLVVQSLHGVFKVKDTTTLQQHLVDGRDMIIIRMPKDFPPFPQKLKFREPQREERICLVTTNFQTKSMSSMVSDTSCTFPSGDGIFWKHWIQTKDGQCGSPLVSTRDGFIVGIHSASNFTNTNNYFTSVPKNFMELLTNQEAQQWVSGWRLNADSVLWGGHKVFMVKPEEPFQPVKEATQL

Variants of: B1
Experiment: raw area under fraction-flipped curve 0-4 h after induction (AUC4h, not background-subtracted), DNA-recorder readout of cleavage of the substrate (dimensionless); higher = more cleavage of the substrate by the protease variant
Conditions: temperature: 34 °C; time window: 0-4 h after rhamnose induction
Method: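 In vivo DNA recorder in E. coli TOP10(DE3) ΔrhaA at 34 °C. Each TEVp single-site mutant (parent TEVp 0) is paired with a single-site variant of the 7-mer TEVs (canonical ENLYFQ|S). The substrate sits between flexible linkers in a Bxb1-sfGFP-TEVs-SsrA fusion, so cleavage stabilises Bxb1 and speeds flipping of a recombination array, read by NGS. The value is the raw area under the fraction-flipped curve over 0-4 h after rhamnose induction (AUC4h), with ≥20 reads per time point. It is not background-subtracted; inactive controls average about 0.047.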
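Note: Bxb1 expression induced with 0.2% (w/v) L-rhamnose at OD600 near 0.5, cultures sampled hourly, flipped fraction per protease–substrate barcode pair counted by paired-end Illumina sequencing.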

Variant | area with substrate ENLYCQS | area with substrate ENLYDQS | area with substrate ENLYEQS | area with substrate ENLYHQS | area with substrate ENLYIQS | area with substrate ENLYNQS | area with substrate ENLYPQS | area with substrate ENLYQQS | area with substrate ENLYRQS | area with substrate ENLYWQS | area with substrate ENLYKQS | area with substrate ENLYLQS | area with substrate ENLYYQS | area with substrate ENLYGQS | area with substrate ENLYMQS | area with substrate ENLYSQS | area with substrate ENLYTQS | area with substrate ENLYVQS
F95Y | 0.0785 | 0.0346 | 0.064 | 0.0674 | 0.111 | 0.0669 | 0.0723 | 0.0607 | 0.0532 | 0.0728 | – | – | – | – | – | – | – | –
Q74S | 0.0665 | 0.0693 | 0.0615 | – | 0.12 | – | – | – | 0.0688 | 0.0787 | 0.0641 | 0.0931 | 0.0663 | – | – | – | – | –
G136V | 0.0924 | – | 0.0787 | 0.0825 | – | 0.0614 | 0.0751 | 0.0618 | 0.0629 | 0.104 | 0.0495 | – | 0.041 | 0.0799 | 0.0688 | 0.0835 | 0.0595 | 0.0918
G136E | 0.0918 | 0.0601 | 0.0712 | 0.072 | 0.144 | – | – | 0.0617 | 0.0585 | 0.0896 | 0.0905 | – | 0.0451 | 0.0686 | – | 0.086 | – | 0.094
P96E | 0.0865 | 0.0544 | 0.0713 | 0.0813 | 0.113 | – | 0.0754 | 0.0514 | 0.062 | – | 0.0558 | 0.102 | – | 0.0709 | 0.0884 | 0.127 | – | –
T55Q | 0.0876 | 0.0617 | 0.0648 | 0.0604 | 0.14 | – | 0.0713 | 0.0544 | 0.0733 | 0.0848 | 0.0551 | – | 0.062 | 0.0637 | 0.0869 | 0.074 | 0.0841 | 0.116
A232R | 0.0863 | 0.0694 | 0.0525 | 0.0659 | – | 0.0992 | 0.0947 | 0.0624 | 0.0481 | 0.0704 | 0.064 | 0.0797 | 0.0522 | 0.0862 | 0.0811 | – | 0.0798 | 0.109
A232E | 0.069 | 0.0619 | 0.0674 | 0.0605 | 0.122 | – | 0.0785 | – | – | – | 0.0647 | 0.0785 | 0.0709 | 0.0735 | 0.0728 | – | 0.103 | 0.119
T72F | 0.0659 | 0.0666 | 0.0681 | 0.0593 | 0.0935 | 0.0582 | 0.0759 | 0.0644 | 0.0651 | – | 0.0606 | – | 0.0618 | 0.0555 | 0.0903 | 0.0749 | 0.0496 | 0.112
R160Q | 0.0863 | 0.0547 | 0.0622 | 0.0619 | – | 0.0941 | 0.0798 | 0.0612 | 0.0445 | 0.0796 | 0.0458 | – | – | 0.0835 | 0.0795 | 0.0652 | 0.0939 | 0.13
D137P | 0.112 | – | – | – | 0.112 | – | – | – | – | 0.106 | – | – | – | 0.0809 | – | 0.0717 | – | –
F117V | – | 0.0726 | 0.066 | 0.0804 | – | 0.0729 | 0.0153 | 0.118 | 0.0562 | 0.0768 | 0.0481 | – | 0.0766 | 0.0614 | 0.0768 | 0.0664 | 0.0853 | 0.106
G138H | 0.0953 | – | 0.0622 | – | 0.129 | – | – | – | 0.0597 | – | – | 0.0724 | – | 0.0732 | – | 0.0639 | 0.0497 | –
E231W | 0.1 | 0.0501 | 0.0567 | 0.0558 | 0.103 | 0.0613 | 0.068 | 0.0542 | – | 0.0661 | 0.0582 | – | 0.0626 | – | – | – | – | 0.105
L56K | 0.0511 | 0.0359 | 0.0634 | 0.0588 | 0.0249 | – | 0.046 | – | 0.0428 | 0.0499 | 0.0291 | – | – | 0.0445 | 0.0465 | 0.0428 | 0.0362 | 0.0408
S17G | 0.0473 | 0.0637 | 0.0731 | 0.0724 | 0.124 | 0.0711 | 0.0894 | 0.0487 | 0.0624 | 0.0813 | 0.0575 | 0.0854 | 0.0846 | 0.0659 | 0.0859 | 0.0788 | 0.0886 | 0.119
S17C | 0.0863 | 0.0658 | 0.0647 | 0.0675 | 0.138 | 0.0576 | 0.0764 | 0.0813 | 0.0746 | 0.0803 | – | 0.0938 | 0.0628 | 0.0679 | 0.0889 | – | 0.0783 | 0.118
N206F | 0.0762 | 0.0663 | 0.0585 | 0.0579 | 0.097 | 0.0585 | 0.0693 | – | – | 0.0738 | 0.0439 | – | 0.0536 | – | – | 0.0688 | 0.0694 | 0.0919
Y12V | 0.0973 | 0.0598 | 0.067 | 0.066 | 0.11 | 0.0619 | 0.056 | 0.0679 | 0.0611 | 0.0894 | 0.064 | 0.135 | 0.0588 | – | 0.0912 | 0.0734 | 0.0822 | 0.0951
I15F | 0.0794 | – | 0.0641 | 0.0714 | 0.132 | 0.0637 | 0.0617 | 0.0454 | 0.0586 | 0.0738 | 0.0393 | 0.0768 | – | 0.0583 | 0.0776 | 0.0705 | – | 0.0905
L33K | 0.0554 | 0.0638 | 0.054 | 0.0571 | 0.0529 | – | 0.0526 | 0.0473 | – | 0.0774 | 0.0529 | – | – | 0.0602 | – | 0.0536 | 0.0631 | –
I19G | 0.0695 | 0.0643 | 0.0639 | 0.0536 | – | 0.0664 | 0.0574 | 0.061 | 0.0475 | 0.063 | 0.0547 | 0.0685 | 0.0507 | 0.064 | – | 0.0719 | – | 0.0652
H76C | 0.0829 | 0.0613 | 0.0679 | 0.0936 | 0.13 | 0.0635 | 0.0779 | – | 0.06 | 0.0816 | 0.0697 | – | 0.0678 | 0.0725 | 0.0896 | 0.0697 | 0.0866 | 0.111
H215V | 0.0748 | – | 0.0658 | 0.0671 | – | 0.0392 | 0.0627 | 0.0604 | – | – | – | – | – | 0.0459 | 0.0522 | 0.0653 | – | –
N24S | 0.0678 | 0.065 | 0.0447 | 0.0833 | 0.0778 | 0.0728 | 0.0713 | – | 0.0462 | – | 0.0713 | 0.0728 | – | – | – | 0.0714 | 0.0649 | –
T174R | 0.0923 | 0.058 | 0.0584 | 0.0645 | 0.098 | 0.0639 | 0.0679 | 0.0486 | – | – | – | 0.0645 | – | 0.0684 | 0.0681 | – | 0.0676 | 0.101
